Data published in paper PMC6919601, “Identification of Plasmodium dipeptidyl aminopeptidase allosteric inhibitors by high throughput screening” (PLoS ONE, 2019).
“And” between values parts separate entries of the source, which are not always exact repeats. Identical values can stand only once. About 230 (0.21%) of roughly 110,000 compounds showed an effect of 50% or more. The list shows a part of the results.

Each compound was assayed against DPAP1 (Plasmodium falciparum, UniProt Q8IIJ9) (assay: primary screen, percent inhibition; read by cleavage of a fluorogenic dipeptide substrate; higher = more effect of the substance).
Design: species or system P. falciparum D10 trophozoite lysates; single well
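Further: 30 min substrate incubation versus DMSO and 10 µM JCP410 controls.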

Sequence of DPAP1 (Q8IIJ9 whole entry, looked up): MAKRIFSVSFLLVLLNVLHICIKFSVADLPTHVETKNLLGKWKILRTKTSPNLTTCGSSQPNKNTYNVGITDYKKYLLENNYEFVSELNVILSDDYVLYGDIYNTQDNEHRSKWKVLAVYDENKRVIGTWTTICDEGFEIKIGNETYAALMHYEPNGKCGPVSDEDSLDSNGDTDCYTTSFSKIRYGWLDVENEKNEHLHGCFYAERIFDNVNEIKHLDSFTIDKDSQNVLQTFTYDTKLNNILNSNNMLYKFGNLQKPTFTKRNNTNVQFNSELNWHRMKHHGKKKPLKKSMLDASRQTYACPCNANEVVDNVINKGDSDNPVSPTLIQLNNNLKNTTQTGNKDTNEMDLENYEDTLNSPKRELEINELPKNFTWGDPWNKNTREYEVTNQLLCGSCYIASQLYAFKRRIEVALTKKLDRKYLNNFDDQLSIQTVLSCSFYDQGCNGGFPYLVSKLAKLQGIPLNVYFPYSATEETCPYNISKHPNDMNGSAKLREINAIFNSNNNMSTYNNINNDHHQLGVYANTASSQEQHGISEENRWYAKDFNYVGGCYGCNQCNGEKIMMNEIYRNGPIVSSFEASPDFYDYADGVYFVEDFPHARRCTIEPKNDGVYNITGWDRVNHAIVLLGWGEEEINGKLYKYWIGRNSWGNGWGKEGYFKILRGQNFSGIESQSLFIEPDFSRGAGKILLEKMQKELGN

| SMILES | % Inhibition @ 10 uM |
| --- | --- |
| CC1Oc2ccccc2C=C1/C=C(\C#N)C(=O)NC1CCS(=O)(=O)C1 (stereo not drawn) | 0.408% |
| CCOc1ccc(C2CC(=O)c3c([nH]c(C(=O)O)c3C)C2)cc1 (stereo not drawn) | 2.35% |
| Cc1ccc(CNC(=O)CN(c2ccc(C)c(C)c2)S(C)(=O)=O)cc1 | 7.38% |
| CCC[C@H](N[C@H](C(=O)NCC#N)c1ccc(-c2ccc(S(C)(=O)=O)cc2)cc1)C(=O)NC1(C#N)CC1 | -6.46% |
| CCNC(=O)c1cc2c(=O)n3cccc(C)c3nc2n(Cc2cccnc2)c1=N | -1.47% |
| CCc1nc(SC)ncc1C(=O)NCCN1CCN(Cc2ccccc2)CC1 | -4.27% |
| COc1ccc(-c2nc(S)c3c(n2)Oc2ccccc2C3)cc1 | 4.16% |
| CC(C(=O)O)n1c(C(=O)O)c(C=O)c2ccccc21 (stereo not drawn) | -3.53% |
| Fc1ccc(C2CCCNc3cc(F)ccc32)cc1 (stereo not drawn) | -4.75% |
| C=CCNC(=O)C(=O)NCCc1ccccc1 | 6.08% |
| O=C(CCS(=O)(=O)c1ccc2ccccc2c1)N1CCOCC1 | 0.658% |
| Cc1c(C)n(CC(O)CNCCc2ccccc2)c2ccccc12 (stereo not drawn) | 5.31% |
| COc1ccc(N2C(=O)CC(=O)NC2=S)cc1 | 0.962% |
| Cc1ccc(CNS(=O)(=O)c2c(C)nc(O)nc2O)cc1 | -2.61% |
| Cc1ccc(/C=C2\N=C(c3ccc(-c4ccccc4)cc3)OC2=O)o1 | 2.14% |
| CCc1ccc(CNCc2c(C(=O)O)n(Cc3ccc(OC)cc3)c3cc(OC)ccc23)cc1 | 4.38% |
| C=CCOc1ccc(C(=O)C2=C(O)C(=O)N(CCCN3CCOCC3)C2c2ccccc2F)c(C)c1 (stereo not drawn) | 1.52% |
| COC(=O)CC1=C(C)C(=O)CC2C(C)(C)CCC[C@]12C (stereo partly drawn) | 3.82% |
| Cc1cc(NC(=O)c2ccc(NC(=O)C(C)(C)C)cc2)no1 | 4.7% and 3.53% |
| COc1ccc(N(CC(=O)N2CCN(C)CC2)S(C)(=O)=O)c(OC)c1 | 3.35% |
| CCC(C)n1c(SCC(=O)N2CCOCC2)nc2c1c(=O)n(C)c(=O)n2C (stereo not drawn) | 5.49% |
| Cc1ccc(Oc2cc(-n3nc(C)c(C(N)=O)c3N)ncn2)cc1 | -0.795% |
| O=C(Cn1nnc(-c2ccc3c(c2)OCO3)n1)NCc1ccc(F)cc1 | -3.75% |
| Cn1c(-c2ccccc2)cn2cc(-c3cccc(Cl)c3)nc12 | -2.91% |
| CCOC(=O)C1=C(C)N=C(C)/C(=C(/O)OCC)C1c1ccc(Cl)cc1 (stereo not drawn) | -2.87% |

| SMILES | % Inhibition @ 10 uM |
| --- | --- |
| Nc1ccc(S(=O)(=O)Nc2ccc(Nc3ccccc3)cc2)cc1 | 4.08% |
| COc1ccc(-c2cc(C(=O)NC(C)C)c3ccccc3n2)cc1OC | 9.41% |
| CC1CCN(S(=O)(=O)c2ccc3nc(-c4ccccn4)cc(C(=O)NC4CCCC4)c3c2)CC1 | -4.53% |
| CC(C)OCCCNC(=O)c1ccc(CSc2nc3ccncc3n2Cc2ccccc2)cc1 | 1.41% |
| CC1=C(C(=O)Nc2ccccc2)C(c2ccccc2Br)NC(=O)N1 (stereo not drawn) | 12.8% |
| CCCN1CCN(CCCNC(=O)C2CCN(S(C)(=O)=O)CC2)CC1 | 3.66% |
| Cc1ccc(S(=O)(=O)NCC(c2ccccc2)N(C)C)cc1 (stereo not drawn) | 2.73% |
| CCOc1ccc2nc(N3CCCC(C(=O)NCCOC)C3)sc2c1 (stereo not drawn) | 1.8% |
| CCC(C)NCc1c(C(=O)O)n(Cc2ccccc2C)c2ccccc12 (stereo not drawn) | -1.44% |
| CCOc1ccc(NC(=O)c2ccccc2F)cc1 | 18.3% |
| Cc1onc(-c2c(F)cccc2Cl)c1C(=O)N1CCN(C23CC4CC(CC(C4)C2)C3)CC1 | -4.49% |
| c1ccc2c(c1)ncn2CCN1CCOCC1 | -1.56% |
| CN(C)c1cnn(C23CC4CC(CC(C4)C2C(=O)O)C3)c(=O)c1Cl (stereo not drawn) | 1.15% |
| Cn1c(C(=O)NC2CCCCCC2)cc2oc3ccccc3c21 | -0.281% |
| COc1ccc(CC(=O)N(Cc2nc(-c3ccccc3)no2)C2CCCCC2)cc1OC | -2.99% |
| COc1ccc(OCc2nn3c(-c4ccccc4OC)nnc3s2)cc1 | -0.45% |
| Cc1nc2c(C)cccc2c(O)c1CC=C(Cl)Cl | -1.32% |
| Cc1ccc(S(=O)Cc2ccc(C(=O)NCc3ccc(Cl)cc3)o2)cc1 (stereo not drawn) | 0.458% |
| Cc1cc(C)nc(/N=C(\N)Nc2ccc(O)cc2)n1 | -0.46% |
| COc1ccc(Br)cc1CNC(=O)CCCc1cn(C)c2ccccc12 | 3.66% |
| Cc1oc(-c2ccc3c(c2)OCCO3)cc1C(=O)NC(Cc1cc2ccccc2[nH]1)C(=O)O (stereo not drawn) | 17% |
| CCn1cc(C(=O)O)c(=O)c2cc(F)c(NCC(C)O)c(F)c21 (stereo not drawn) | -9.37% |
| O=S(=O)(c1ccc2c(c1)Cc1ccccc1-2)N1CCOCC1 | -1.5% |
| CC(C)CSc1nnc2sc3ccccc3n12 | -5.26% |
| COc1cccc(C2NC(C(=O)O)CS2)c1O (stereo not drawn) | -2.86% |

| SMILES | % Inhibition @ 10 uM |
| --- | --- |
| CCc1nnc(NC(=O)c2ccc(Cc3ccccc3)cc2)s1 | -0.053% |
| COc1cc(OC)c(OC)cc1/C=C1\N=C(c2ccco2)OC1=O | -6.77% |
| c1ccc2c(c1)CCC(NCCc1c[nH]c3ccccc13)C2 (stereo not drawn) | 1.88% |
| COC(=O)c1sc2nc(C)cc(C(F)(F)F)c2c1N | -5.61% |
| Cc1cc(C)n2nc(Cc3ccccc3)c(-c3ccccc3)c2n1 | 1.4% |
| CCOc1ccc(C2NCCc3cc(OCC)c(OCC)cc32)cc1 (stereo not drawn) | 3.29% |
| O=C(CN1CCN(Cc2ccc(F)cc2Cl)C1=O)NCc1ccccc1Cl | -2.12% |
| COc1ccc(C2CC(=O)C3=C(C2)NC(=O)CC3c2ccccc2C(F)(F)F)cc1OC (stereo not drawn) | 1.39% |
| N=C(N)SCc1csc2c1CCCC2 | 2.3% |
| OCCN1CCN(CCOc2ccccc2-c2ccccc2)CC1 | -16.5% |
| CSc1nc(-c2ccccc2)nn1S(=O)(=O)c1ccccc1 | 0.511% |
| CCOC(=O)N1CCC(NC(=O)CS(=O)(=O)Cc2nc(-c3ccc(C)cc3)oc2C)CC1 | -1.89% |
| COc1ccc(CN(C)Cc2ccccc2)cc1 | 1.62% |
| CCc1nnc(NC(=O)C(C(C)CC)N2C(=O)c3ccccc3C2=O)s1 (stereo not drawn) | -4.74% |
| Cc1ccc2nc(Nc3nc(O)cc(-c4ccccc4)n3)nc(C)c2c1 | 2.94% |
| O=C(Nc1ccc(F)c(Cl)c1)c1ccccc1NC(=O)C1CCCCC1C(=O)O (stereo not drawn) | 3.91% |
| C=CCn1c(SCC(=O)NC(N)=O)nc2sc(-c3ccccc3)cc2c1=O | -2.88% |
| CCC1CCc2nc3sc(C(=O)Nc4ccc(OC)cc4OC)c(N)c3cc2C1 (stereo not drawn) | -7.14% |
| Cc1cccc(-n2nc(C)c(/C=N/C(=O)NCCc3ccccc3)c2O)c1 | 3.05% |
| CC1CC(OC(=O)c2ccccc2)(c2ccccc2)C(C)CN1C (stereo not drawn) | 3.34% |
| CC1(C)CC2CC(C)(CN2C(=O)/C(=C/c2ccco2)NC(=O)c2ccccc2)C1 (stereo not drawn) | -0.996% |
| CC1CC(C)CN(C(=O)Cn2nc(Cc3ccncc3)c3ccccc3c2=O)C1 (stereo not drawn) | 2.04% |
| CCN1C(=O)S/C(=C/c2cn(CC(=O)O)c3ccccc23)C1=O | 8.69% |
| O=C(N[C@H](/C=C/S(=O)(=O)c1ccccc1)CCc1ccccc1)[C@H](Cc1ccccc1)NC(=O)N1CCNCC1 | 2.22% |
| CCc1c(C)sc(NC(=O)C2CCCCC2)c1C(N)=O | 0.331% |

| SMILES | % Inhibition @ 10 uM |
| --- | --- |
| CCN(CC)S(=O)(=O)c1ccc(NC(=O)C(c2ccccc2)c2ccccc2)cc1 | -1.17% |
| Cc1nn(CC(=O)NC2CCCC(C)C2C)c2ccccc12 (stereo not drawn) | -6.6% |
| O=C(c1ccccc1)N1N=C(c2ccco2)CC1c1cccs1 (stereo not drawn) | -6.17% |
| COc1ccc(C(=O)N2CCN(Cc3cccc(OC)c3OC)CC2)cc1 | -20.7% |
| COCCN1C(=O)c2ccccc2C(C(=O)NC2CCCCC2)C1c1ccc(F)cc1 (stereo not drawn) | 1.26% |
| O=S(=O)(NCCc1ccccc1)c1cccc2nsnc12 | 4.88% |
| Cc1ccc(Cn2cc(CO)c3ccccc32)cc1 | -4.75% |
| CS(=O)(=O)N(CC(=O)N1CCN(Cc2ccccc2)CC1)c1cccc(F)c1 | -3.19% |
| CC(C)c1nnc2sc(NC(=O)c3ccccc3)nn12 | 4.86% |
| Cc1ccc2nc(NC(=O)COC(=O)c3ccc(Br)o3)sc2c1 | 27.4% |
| CC[C@H](NC(=O)[C@H](CC1CCCCC1)OC(=O)N1CCOCC1)C(=O)c1nnc(-c2ccccc2)o1 | -3.48% |
| COc1ccc(C2=NOC(C(=O)N3CCC(C)CC3)C2)cc1 (stereo not drawn) | 1.42% |
| COc1ccccc1NC(=O)c1cnn2c1NC(c1ccc(Br)cc1)CC2C(F)(F)F (stereo not drawn) | -5.69% |
| CC(C)c1ccc(CC(NC(=O)c2ccccc2)C(=O)NCC(=O)O)cc1 (stereo not drawn) | 1.84% |
| Cc1ccc(C(=O)N/C(=C\c2ccc3c(c2)OCO3)C(=O)NC(CC(C)C)C(=O)O)cc1 (stereo not drawn) | 1.91% |
| Cc1ccc2c(c1)c(=O)c1c3n2CCNC3CC1 (stereo not drawn) | -4.02% |
| COc1ccc(N2C(=O)C3C4CCC(C4)C3C2=O)cc1 (stereo not drawn) | 2.45% |
| Cn1cc(NC(=O)Nc2ccccn2)c2ccccc2c1=O | -2.95% |
| CC(C)c1ccc(C2N3CC4(C)CN2CC(C)(C3)C4)cc1 (stereo not drawn) | 1.62% |
| O=C(OCCN1CCCCC1)C(O)(c1ccccc1)c1ccccc1 | 8.68% |
| CCOc1ccc(C2=Nn3c(nnc3-c3ccc(OC)cc3)SC2)cc1 | 5.12% |
| COc1ccc(S(=O)(=O)NCCc2cc3ccc(C)cc3nc2O)cc1 | -0.396% |
| CCOC(=O)C1CCCCN1Cc1ccc(F)cc1 (stereo not drawn) | 3.1% |
| COc1ccc(Cl)cc1-c1nc(-c2ccc(NC(=O)c3ccccn3)cc2)no1 | 0.993% |
